# Assay results published in PubChem BioAssay AID1508642 (National Center for Advancing Translational Sciences (NCATS), 2021).
# Out of some 43,000 compounds screened, about 200 (0.47%) were called active. About 12% were inconclusive and are not listed. Calls come from the whole dose curve; as a rule, active = well fitted cell-killing curve with a large enough effect; inconclusive = small, poorly fitted or top-dose-only effect, or effect the other way; inactive = flat fitted curve, though single readings scatter. The list shows a part of the results.
# Assay: Cell viability qHTS assay in S16 Pmp22-F2sN cells; note: nearly all actives have a fitted effect of over 65% in size
# Details: S16 Pmp22-F2sN Schwann cells viability, CellTiter-Glo, 24 h; series mostly up to 57.5 µM; activity change, negative = cytotoxicity: at the top concentration
# Method in brief: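 S16 Pmp22-F2sN Schwann cells (500-1,000/well) in phenol-red-free DMEM with 10% FBS received 23 nL compound by pin tool for 24 h at 37 °C. Viability was then read as CellTiter-Glo luminescence after 15 min at room temperature.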
# % is set by controls: 0 for no effect and ±100 for the full control effect.
row,Structure (SMILES),"activity change, negative = cytotoxicity"
1,Cc1cccc(-c2nc3nc(C)cc(NCc4ccccc4Cl)n3n2)c1,inactive: -17.8%
2,Fc1cc(F)c2ncc3c(-c4ccccc4)nn(-c4cccc(Cl)c4)c3c2c1,inactive: 0.195%
3,CC(C)OCCCNC(=O)C(=O)Nc1ccc2nc3n(c(=O)c2c1)CCCCC3,inactive: 25%
4,Cc1cccc(Cn2c(=O)n(Cc3ccccc3)c(=O)c3oc4ccccc4c32)c1,inactive: -1.28%
5,Cc1ccccc1NC(=O)C1CCN(C(=O)c2cnn(-c3ccccc3)c2-n2cccc2)CC1,inactive: -21.9%
6,Cc1ccc(Sc2ccc(N3CCC(C(=O)Nc4ccc(C)c(F)c4)CC3)nn2)cc1,inactive: 13.2%
7,Cc1ccc(-n2c(SCC(=O)NCc3ccccc3)nc3n[nH]c(C)c3c2=N)cc1Cl,inactive: 1.06%
8,O=C(NCC(c1cccs1)S(=O)(=O)c1cccs1)c1ccc(Cl)cc1 (configuration not stated),inactive: 4.27%
9,CC1CCN(c2oc(-c3ccc(COc4ccccc4)o3)nc2C#N)CC1,inactive: -3.02%
10,Cc1cc(C)c(NC(=O)CN2C(=O)c3cccnc3Oc3ccc(C)cc32)c(C)c1,inactive: 2.04%
11,Cc1ccc(-c2cc(NC(=O)COc3ccc(Cl)c(C)c3)on2)cc1,inactive: -0.509%
12,CCN1CCN(C(=O)Cn2ncc3c4ccccc4n(Cc4ccccc4)c3c2=O)CC1,inactive: -1.42%
13,Cc1ccc(/C=C/C(=O)Nc2ccc(S(N)(=O)=O)cc2)o1,inactive: 4.68%
14,Nc1nnc(SCC(=O)Nc2ccccc2)s1,inactive: 3.5%
15,COc1cccc(NC(=O)Cn2c(=O)n(CC(=O)NCc3ccc(C)cc3)c(=O)c3sccc32)c1,inactive: 1.03%
16,CCOC(=O)c1cccc(NC(=O)c2cn(-c3cccc(OC)c3)c(=O)c3ccccc23)c1,inactive: 3.21%
17,Cc1cc(C)c(Cn2c3ccccc3c3cnn(CC(=O)NCc4ccccn4)c(=O)c32)c(C)c1,inactive: -11%
18,COc1ccc2cc(C(=O)NCc3ccc4c(c3)CCN4C(=O)c3ccccc3)[nH]c2c1,inactive: 6.26%
19,Cc1cccc(C(=O)NC(=O)Nc2ccc(-c3cc(C(F)(F)F)nn3-c3ccccc3)cc2)c1,inactive: 8.1%
20,COc1ccc(C(=O)Nc2ccc(OCc3cc(=O)n4ccsc4n3)cc2)cc1OC,inactive: 5.58%
21,CCOc1ccc(S(=O)(=O)c2cn(Cc3ccccc3)c3ccc(OCC)cc3c2=O)cc1,inactive: -7.29%
22,Cc1cc(NC(=O)NCc2ccc3c(c2)CCN3C(=O)c2ccccc2)ccc1Br,inactive: -8.71%
23,CC(C)(C)OC(=O)N1CCC(c2c(C(=O)NCc3ccco3)cnn2-c2ccccc2)CC1,inactive: -2%
24,Cc1ccc(NC(=O)Cn2cnc3nc4c(cc3c2=O)CCCC4)cc1Cl,inactive: 1.36%

row,Structure (SMILES),"activity change, negative = cytotoxicity"
1,Cc1cc(=O)n2nc(N3CCC(C(=O)NCc4ccccc4)CC3)sc2n1,inactive: 24.3%
2,Cc1cc(C)c2c(=O)cc(C(=O)Nc3ccc(S(=O)(=O)N(C)Cc4ccccc4)cc3)oc2c1,inactive: 7.33%
3,O=C(C1CCN(S(=O)(=O)c2cccc3nonc23)CC1)N1CCN(c2ccccc2F)CC1,inactive: -13.1%
4,CCOC(=O)c1sc2ccccc2c1S(=O)(=O)N1CCN(c2cccc(C)c2C)CC1,inactive: 6.35%
5,CCC(C(=O)OC)n1cnc2c(cnn2-c2ccc(F)cc2)c1=O (configuration not stated),inactive: 4.16%
6,COc1ccc(-c2nc(SCC(=O)c3ccc(OC)c(Br)c3)n[nH]2)cc1,inactive: -6.36%
7,COc1cc(NC(=O)C2CCCN(S(=O)(=O)c3ccc4c(c3)CCCC(=O)N4)C2)cc(OC)c1 (configuration not stated),inactive: 11.1%
8,COc1cc(Cl)c(C)cc1NC(=O)Cn1ncc2c(=O)oc3ccccc3c21,inactive: 1.01%
9,CCOc1cccc(C2c3[nH]c4ccccc4c3CCN2C(=O)CCC2CCCC2)c1 (configuration not stated),inactive: 12%
10,CCC(Sc1nc2nccnc2c(=O)n1Cc1ccc(F)cc1)C(=O)NC1CCCCC1 (configuration not stated),inactive: 7.98%
11,COc1ccc(CNC(=O)c2ccc3c(c2)N(Cc2ccccc2F)C(=O)c2ccccc2S3(=O)=O)cc1,inactive: 13.8%
12,COCCNC(=O)CCc1c(C)nc2c(c(C)nn2-c2ccc(C)cc2)c1C,inactive: -5.09%
13,Cc1cc(F)ccc1NC(=O)CN(C)S(=O)(=O)c1ccc(C(=O)N2CCOCC2)s1,inactive: 21.9%
14,CCN(CC)C(=O)CSc1nc2cc3c(cc2c(=O)n1CCCCCC(=O)NCCc1ccc(OC)c(OC)c1)OCO3,inactive: 5.35%
15,CCc1ccccc1NC(=O)CSC1=Nc2ccccc2C2=NC(Cc3ccccc3)C(=O)N12 (configuration not stated),inactive: -11.6%
16,O=C(COc1ccc([N+](=O)[O-])cc1)Nc1cccc2cccnc12,inactive: -1.9%
17,COc1ccc(OCc2ccc(-c3nc(C#N)c(N4CCN(c5cccc(Cl)c5)CC4)o3)o2)cc1,inactive: 2.07%
18,CCCN(CCC)c1nc(-c2ccccc2F)nc2ccccc12,inactive: 26.2%
19,CCc1cccc(NC(=O)CCc2nc3cccnc3n2-c2ccccc2)c1,inactive: 4.86%
20,CSc1ccc(CCNC(=O)c2ccc(CS(=O)(=O)c3ccc(Br)cc3)o2)cc1,inactive: -5.79%
21,COCCNC(=O)c1cccc(Nc2nc3ccccc3n3nnnc23)c1,inactive: 0.897%
22,CCOc1cc(CNC(=O)c2ccc3c(c2)N(C)C(=O)C2CCCCN32)cc(OCC)c1OCC (configuration not stated),inactive: 7.16%
23,O=C(Nc1ccc(F)cc1F)c1cc2c(=O)n3ccccc3nc2s1,inactive: 6.71%
